# Assay results taken from patent US20250243260A1 (ALPINE IMMUNE SCIENCES, published 2025).
# Biological target: T1, human CD28 (endogenously expressed on primary human T cells) (human, UniProt P10747 19-220)
# T1 construct: whole, on cells
# Test: flow cytometry, primary human T cells
# Description: Binding affinity to CD28 was determined using primary human T cells which endogenously express CD28. Binding to PD-L1 was determined using SCC152 cells transduced with human PD-L1. Binding to CTLA-4 was measured using Chinese hamster ovary (CHO) cells stably transduced to express human CTLA-4.
# For staining and analysis by flow cytometry, 75,000 human T cells, SCC152/PD-L1 cells, or CHO/CTLA-4 cells were plated in 96-well round-bottom plates. Cells were spun down and resuspended in staining buffer (PBS (phosphate buffered saline), 1% BSA (bovine serum albumin), 1 mM EDTA, and 0.1% sodium azide) for 20 minutes to block non-specific binding. Afterwards, cells were centrifuged, stain buffer aspirated, and then resuspended in 50 μL of a 1:5 serial dilution of each CD80-Fc candidate variant starting at 100 nM ending at 0.8 nM. Primary staining was performed on ice for 60 minutes, before washing cells in […] staining buffer three times. PE-conjugated anti-human Fc (Jackson ImmunoResearch, USA) was diluted 1:250 in 50 μL staining buffer and added to cells and incubated another 30 minutes at 4° C. Cells were washed two times in 150 μL stain buffer and then fixed in 2% formaldehyde/PBS for 5 minutes at room temperature. Samples were analyzed CytoFLEX LX flow cytometer (Beckman Coulter, USA). Median Fluorescence Intensity (MFI) was calculated for each cell type using the CytExpert software from Beckman Coulter.
MFI (anti-human Fc) at 0.8 nM [MFI],MFI (anti-human Fc) at 4 nM [MFI],MFI (anti-human Fc) at 20 nM [MFI],MFI (anti-human Fc) at 100 nM [MFI],fold change of MFI vs WT CD80 at 20 nM [fold],Binder
244,380,639,799,3.5,"CD80_212-Fc, variant CD80 IgV-Fc K9R/E10A/E35G/V68T/T101K (Fc fusion, variant IgV - GSGGGGS - human IgG4 Fc (S228P)) VIHVTKEVRAVATLSCGHNVSVEELAQTRIYWQKGKKMVLTMMSGDMNIWPEYKNRTIFDITNNLSITILALRPSDEGTYECVVLKYEKDAFKREHLAEVKLSVKADGSGGGGS[omitted - human IgG4 Fc with S228P (EU numbers)]"
375,480,722,999,4,"CD80_214-Fc, variant CD80 IgV-Fc E10G/E35G/D46E/M47V/V68M/T101K (Fc fusion, variant IgV - GSGGGGS - human IgG4 Fc (S228P)) VIHVTKEVKGVATLSCGHNVSVEELAQTRIYWQKGKKMVLTMMSGEVNIWPEYKNRTIFDITNNLSIMILALRPSDEGTYECVVLKYEKDAFKREHLAEVKLSVKADGSGGGGS[omitted - human IgG4 Fc with S228P (EU numbers)]"
219,381,630,851,3.5,"CD80_213-Fc, variant CD80 IgV-Fc V11Y/V68T (Fc fusion, variant IgV - GSGGGGS - human IgG4 Fc (S228P)) VIHVTKEVKEYATLSCGHNVSVEELAQTRIYWQKEKKMVLTMMSGDMNIWPEYKNRTIFDITNNLSITILALRPSDEGTYECVVLKYEKDAFKREHLAEVTLSVKADGSGGGGS[omitted - human IgG4 Fc with S228P (EU numbers)]"
247,355,771,1580,4.3,"CD80_216-Fc, variant CD80 IgV-Fc V11W/T28Y/D46V/R73E/F92L (Fc fusion, variant IgV - GSGGGGS - human IgG4 Fc (S228P)) VIHVTKEVKEWATLSCGHNVSVEELAQYRIYWQKEKKMVLTMMSGVMNIWPEYKNRTIFDITNNLSIVILALEPSDEGTYECVVLKYEKDALKREHLAEVTLSVKADGSGGGGS[omitted - human IgG4 Fc with S228P (EU numbers)]"
384,919,2240,3460,12.4,"CD80_218-Fc, variant CD80 IgV-Fc V11W/T28Y/D46V/V68T/R73T/Y87N (Fc fusion, variant IgV - GSGGGGS - human IgG4 Fc (S228P)) VIHVTKEVKEWATLSCGHNVSVEELAQYRIYWQKEKKMVLTMMSGVMNIWPEYKNRTIFDITNNLSITILALTPSDEGTYECVVLKNEKDAFKREHLAEVTLSVKADGSGGGGS[omitted - human IgG4 Fc with S228P (EU numbers)]"
1040,2680,4550,4860,25.3,"CD80_217-Fc, variant CD80 IgV-Fc K9N/E10G/Y87K/T101Q (Fc fusion, variant IgV - GSGGGGS - human IgG4 Fc (S228P)) VIHVTKEVNGVATLSCGHNVSVEELAQTRIYWQKEKKMVLTMMSGDMNIWPEYKNRTIFDITNNLSIVILALRPSDEGTYECVVLKKEKDAFKREHLAEVQLSVKADGSGGGGS[omitted - human IgG4 Fc with S228P (EU numbers)]"
212,249,413,719,2.3,"CD80_215-Fc, variant CD80 IgV-Fc K9R/E10A/E35G/V68L/L85E (Fc fusion, variant IgV - GSGGGGS - human IgG4 Fc (S228P)) VIHVTKEVRAVATLSCGHNVSVEELAQTRIYWQKGKKMVLTMMSGDMNIWPEYKNRTIFDITNNLSILILALRPSDEGTYECVVEKYEKDAFKREHLAEVTLSVKADGSGGGGS[omitted - human IgG4 Fc with S228P (EU numbers)]"
280,578,1750,3190,9.7,"CD80_219-Fc, variant CD80 IgV-Fc E10S/V11Y/M42R/A71V (Fc fusion, variant IgV - GSGGGGS - human IgG4 Fc (S228P)) VIHVTKEVKSYATLSCGHNVSVEELAQTRIYWQKEKKMVLTRMSGDMNIWPEYKNRTIFDITNNLSIVILVLRPSDEGTYECVVLKYEKDAFKREHLAEVTLSVKADGSGGGGS[omitted - human IgG4 Fc with S228P (EU numbers)]"
